In the RNAGym collection of RNA variant scans (doi:10.1093/nar/gkz1192):
The source gives no read counts; variants with many changes may rest on few reads.

B1: CPEB3 Ribozyme (parent)
chain: UAACAGGGGGCCACAGCAGAAGCGUUCACGUCGCAGCCCCUGUCAGAUUCUGGUGAAUCUGCGAAUUCUGCUGUAUAUCUC

Variants of: B1
Assay: self-cleavage, relative activity (ratio to wild type); higher = more cleavage; in vitro, sequencing
Method in brief: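 Libraries of CPEB3 self-cleaving ribozyme mutants came from rounds of error-prone PCR and carried barcodes, which DNA sequencing matched to variants. In vitro transcription used T7 RNA polymerase at 37°C for 5 hours, with a further 15 min in DNase I before EDTA stopped the reaction; the ribozymes cleaved during both steps. The RNA was reverse transcribed with template switching and sequenced on Illumina. Relative activity is the cleaved/total read fraction of a variant divided by that of the unmutated ribozyme, averaged over three batches with at least 5 reads.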

**Q.** With UAACAGGGGGCCACAGCAGAAGCGUACACGUCGCAGCCCCUGUCAGAUUCUGGUGAACCUGCGGUUUCUGCUGUAUAUCUC [U26A U58C A64G A65U] as the variant, how does the self-cleavage read?
**A.** 0.17

**Q.** With UAACAGGGGGCCACAGCAGAAGCGUACACGUCGCAGCCCCUGUCAGACUCCGGUGAAUCUGCGAACUCUGCUGUAUAUCUC [U26A U48C U51C U66C] as the variant, how does the self-cleavage read?
**A.** 0.03

**Q.** With UAACAGGGGGCCACAGCAGAAGCGUACACGUCGCAGCCCCUGCCAGAUUCUGGUGAAUCUGCGAACUCUGCCGUAUAUCUC [U26A U43C U66C U72C] as the variant, how does the self-cleavage read?
**A.** 0.2

**Q.** For UAACAGGGGGCCACAGCAGAAGCGUACACGUCGCAGCCCCGGUCAGAUUCUGGUAAAUCUGCGAAUUCUGCUGUAUAUCUC [U26A U41G G55A], which self-cleavage is on record?
**A.** 0.1

**Q.** Which self-cleavage does the source give for UAACAGGGGGCCACAGCAGAAGCGUACACGUCGCAGCCCCAGUCAGAUUCCGGUGAAUCUGCGAACCCUGCUGUAUAUCUC [U26A U41A U51C U66C U67C] here?
**A.** 0.32

**Q.** With UAACAGGGGGCCACAGCAGAAGCGUACACGUCGCAGCCCCUGUCAGAUACUGGUGAAUCUGCGAAUUCUGCUGAAUACCUC [U26A U49A U74A U78C] as the variant, how does the self-cleavage read?
**A.** 0.77

**Q.** For UAACAGGGGGCCACAGCAGAAGCGUACACGUCGCAGCCCCUGUCAGAUUCUGGAGGAUCUGCGAAUUCUGCUGUAUAUCUC [U26A U54A A56G], which self-cleavage is on record?
**A.** 0.67

**Q.** For UAACAGGGGGCCACAGCAGAAGCGUACACGUCGCAGCCCCUGUCAGAUUCUGGAGUAUCUGCGAAUUCUGCUGAAUAUCUC [U26A U54A A56U U74A], which self-cleavage is on record?
**A.** 0.91

**Q.** Which self-cleavage does the source give for UAACAGGGGGCCACAGCAGAAGCGUACACGUCGCAGCCCCUGUCAGAUUCUGGAGUAUCUGCGAAUUCUGCUGUGUAUCUC [U26A U54A A56U A75G] here?
**A.** 0.24

**Q.** With UAACAGGGGGCCACAGCAGAAGCGUACACGUCGCAGCCCCUGACAGAUUCUGGCGAAUCUGCGAAUUCUGCUGUAUAUCUC [U26A U43A U54C] as the variant, how does the self-cleavage read?
**A.** 0.19

**Q.** For UAACAGGGGGCCACAGCAGAAGCGUACACGUCGCAGCCCCUGCCAGGUUCUGGUGAAUCUGCGAAUUCCGCCGUAUAUCUC [U26A U43C A47G U69C U72C], which self-cleavage is on record?
**A.** 0.06

**Q.** With UAACAGGGGGCCACAGCAGAAGCGUACACGUCGCAGCCCCUGUCAGAUUCAGGUGAAUCUGCGUAUUCUGCUGUAUAUCUC [U26A U51A A64U] as the variant, how does the self-cleavage read?
**A.** 0.62

**Q.** For UAACAGGGGGCCACAGCAGAAGCGUACACGUCGCAGCCCCUGUCAGAUCCUGGUGAAUCUGCGAAUUCUGCCGUAUAUCUC [U26A U49C U72C], which self-cleavage is on record?
**A.** 0.22

**Q.** For UAACAGGGGGCCACAGCAGAAGCGUACACGUCGCAGCCCCUGUCAGAUUCUGGCGAAUCUGCGAAUUCUGCUGUUUAUGUC [U26A U54C A75U C79G], which self-cleavage is on record?
**A.** 1.02

**Q.** For UAACAGGGGGCCACAGCAGAAGCGUACACGUCGCAGCCCCUGUCAGAUUCUGGGGAAUCUGCGAAUUCAGCUGUUUAUCUC [U26A U54G U69A A75U], which self-cleavage is on record?
**A.** 0.14

**Q.** Which self-cleavage does the source give for UAACAGGGGGCCACAGCAGAAGCGUACACGUCGCAGCCCCCGUCAGAUCCUGGUGAAUCUGCGUAUUCUGCUGUUUAUCUC [U26A U41C U49C A64U A75U] here?
**A.** 0.08

**Q.** With UAACAGGGGGCCACAGCAGAAGCGUACACGUCGCAGCCCCUGACAGAUUCUGGUGAAUCUGCGAAUCCAGCUGUAUAUCUC [U26A U43A U67C U69A] as the variant, how does the self-cleavage read?
**A.** 0.08

**Q.** For UAACAGGGGGCCACAGCAGAAGCGUACACGUCGCAGCCCCUGUCAGACUCUGGUGAAUCCGCGAAUUCUGCUGUAUAUCUC [U26A U48C U60C], which self-cleavage is on record?
**A.** 0.26

**Q.** Which self-cleavage does the source give for UAACAGGGGGCCACAGCAGAAGCGUACACGUCGCAGCCCCUGUCAGACUCUGGUGAAUCAGCGAAUUCUGCUGUAUAUCUC [U26A U48C U60A] here?
**A.** 0.23

**Q.** For UAACAGGGGGCCACAGCAGAAGCGUACACGUCGCAGCCCCUGCCAGAUUCCGGUGAAUCUGCGAAUUCUGCUGUAUAUCUC [U26A U43C U51C], which self-cleavage is on record?
**A.** 0.87

**Q.** Which self-cleavage does the source give for UAACAGGGGGCCACAGCAGAAGCGUACACGUCGCAGCCCCUGUCAGAUUCAGGCGAAUCUGCGAAUCCUGCUGUAUAUCUC [U26A U51A U54C U67C] here?
**A.** 0.27

**Q.** Which self-cleavage does the source give for UAACAGGGGGCCACAGCAGAAGCGUACACGUCGCAGCCCCUGUCAGACUCUGGCGAAUCUGCGAAUUCUGCUGUAUAUCUC [U26A U48C U54C] here?
**A.** 0.2

**Q.** With UAACAGGGGGCCACAGCAGAAGCGUACACGUCGCAGCCCCAGUCAGAUUCUGGUGAAUCAGCGAAUUCUGCUAUAUAUCAC [U26A U41A U60A G73A U80A] as the variant, how does the self-cleavage read?
**A.** 0.07

**Q.** Which self-cleavage does the source give for UAACAGGGGGCCACAGCAGAAGCGUACACGUCGCAGCCCCUGUCAGACCCCGGUGAAUCUGCGAAUUCUGCUGUAUGUCUC [U26A U48C U49C U51C A77G] here?
**A.** 0.22

**Q.** With UAACAGGGGGCCACAGCAGAAGCGUACACGUCGCAGCCCCUGUCAGAUUCCGGAGAAUCUGCGAAUUCUGCUGUAUAUCUC [U26A U51C U54A] as the variant, how does the self-cleavage read?
**A.** 0.98

**Q.** For UAACAGGGGGCCACAGCAGAAGCGUACACGUCGCAGCCCCUGUCAGAUUCCGGUGAAUCUGCGAAUCCUGCUGUAUAUCUC [U26A U51C U67C], which self-cleavage is on record?
**A.** 0.26

**Q.** Which self-cleavage does the source give for UAACAGGGGGCCACAGCAGAAGCGUACACGUCGCAGCCCCUGUCAGAUUCCGGUGAAUCUGCGUAUUCUGCUGUAUAUCAC [U26A U51C A64U U80A] here?
**A.** 0.16

**Q.** For UAACAGGGGGCCACAGCAGAAGCGUACACGUCGCAGCCCCUGUCAGAUCCUGGUGACUCUGCGAAUUCUGCUGUAUAUCUC [U26A U49C A57C], which self-cleavage is on record?
**A.** 0.13

**Q.** For UAACAGGGGGCCACAGCAGAAGCGUACACGUCGCAGCCCCUGUCAGAUUCCGGUGAAUCUGCGAAUUCUGCUGUACAUCUC [U26A U51C U76C], which self-cleavage is on record?
**A.** 0.95

**Q.** Which self-cleavage does the source give for UAACAGGGGGCCACAGCAGAAGCGUACACGUCGCAGCCCCUGACAGAUUCUGGUGAACCUGCGAACUCUACUGUAUAUCUC [U26A U43A U58C U66C G70A] here?
**A.** 0.05

**Q.** With UAACAGGGGGCCACAGCAGAAGCGUACACGUCGCAGCCCCUGUCAGAUUCUGGUGAAUCAGCGAAUUCCGCUGUAUAUCUC [U26A U60A U69C] as the variant, how does the self-cleavage read?
**A.** 0.3

**Q.** With UAACAGGGGGCCACAGCAGAAGCGUACACGUCGCAGCCCCCGCCAGAUUCUGGUGAAUCUGCGAAUUCUGCUGUAUAUCUC [U26A U41C U43C] as the variant, how does the self-cleavage read?
**A.** 0.13

**Q.** For UAACAGGGGGCCACAGCAGAAGCGUACACGUCGCAGCCCCUGUCAGAUUCUGGAGAAUCUGCGAAUUCUGCAGUAUAUCUC [U26A U54A U72A], which self-cleavage is on record?
**A.** 0.46

**Q.** For UAACAGGGGGCCACAGCAGAAGCGUACACGUCGCAGCCCCUGUCAGAUCCUGGUGAGCCUGCGGAUUCUGCUGUAUAUCUC [U26A U49C A57G U58C A64G], which self-cleavage is on record?
**A.** 0.11
